Results published in PubChem BioAssay AID1745845 (National Center for Advancing Translational Sciences (NCATS), 2022).
“And” between values parts separate entries of the source, which are not always exact repeats. Identical values can stand only once. About 2,600 (0.72%) of roughly 360,000 compounds were called active. Inconclusive results, whose numbers are uncertain, are shown with a selection of clear calls. Calls follow the shape of the dose curve; as a rule, active = well fitted inhibition curve with a large enough effect; inconclusive = small, poorly fitted or top-dose-only effect; inactive = no such curve, though single readings can be large or run the other way. Potencies of inconclusive entries are doubtful fits and often do not repeat. Some structures have more than one record in an assay (separate samples or runs), and their calls can disagree.

Experiment: Primary qHTS for Inhibitors of ATXN expression; also: nearly all actives have a fitted effect of over 55% in size
Details: HEK-293 ATXN2-luciferase reporter, luminescence, 24 h; activity change, negative = inhibition: at 57 µM (top of the series)
In short: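 ATXN2-luciferase reporter cells (luciferase flanked by upstream and downstream ATXN2 gene portions) were treated 24 h at 37 °C with compounds at up to 57 uM. SteadyGlo luminescence gave expression; GF-AFC fluorescence gave viability.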
% is scaled to controls: 0 for no effect and ±100 for the full control effect; potency is read from the fitted curve at half-maximal effect; tags tell the direction and shape of the fitted curve.

| Compound | Potency | activity change, negative = inhibition |
| --- | --- | --- |
| CCCCN(CCCC)CC(O)COc1ccc(Br)cc1 (stereo not drawn) | inconclusive: 17.8 µM [inhibitor, partial curve, poor fit] | – |
| COc1ccc(CCNC(=O)c2cc3c(s2)-c2ccccc2OC3)cc1OC | inconclusive: 11.2 µM [inhibitor, partial curve, poor fit] | – |
| C=CCc1cccc(C=Nc2cc(Br)ccc2O)c1O | – | inactive: 2.66% |
| NC1=N[C@@]2(c3cc(NC(=O)c4ccc(F)cn4)ccc3F)COC[C@@H]2CS1 | – | inactive: 31.7% |
| COc1cccc(-c2sc3ccc(OC)cc3c2-c2ccc(O)cc2)c1 | inconclusive: 31.6 µM [inhibitor, partial curve] | – |
| COC(=O)CNC(c1ccccc1)c1cc(Br)ccc1NC(=O)c1ccccc1 (stereo not drawn) | inconclusive: 35.5 µM [inhibitor, partial curve, poor fit] | – |
| O=C(CCCNS(=O)(=O)c1cccs1)N1CCN(c2cccc(Cl)c2)CC1 | inconclusive: 39.8 µM [inhibitor, partial curve, poor fit] | – |
| NS(=O)(=O)c1ccc(CCNc2ncnc3c2c(-c2ccccc2)cn3-c2ccc(F)cc2)cc1 | inconclusive: 31.6 µM [inhibitor, single point] | – |
| CC(C(=O)c1ccc(-c2ccccc2)cc1)[n+]1cccc(Br)c1 (stereo not drawn) | inconclusive: 15.8 µM [inhibitor, single point] | – |
| NC1(Cc2ccc(Cl)cc2)CCN(c2ncnc3[nH]ccc23)CC1 | active: 27.3 µM | – |
| Cc1ccc(S(=O)(=O)NCCSc2ncccn2)cc1 | – | inactive: 12.3% |
| O=C(/C=C/c1ccccc1)c1ccc2ccccc2c1 | – | inactive: 62% |
| COc1ccc2[nH]c(=O)c(CN(Cc3ccco3)C(c3nnnn3Cc3ccccc3)C(C)C)cc2c1 (stereo not drawn) | inconclusive: 39.8 µM [inhibitor, single point] | – |
| CN(c1ccccc1)S(=O)(=O)c1ccc(C(=O)Nc2nnc(-c3ccco3)o2)cc1 | inconclusive: 39.8 µM [inhibitor, single point] | – |
| O=C(NC(c1ccccc1)c1ccsc1)C1CCN(CCOc2ccc(Cl)cc2Cl)CC1 (stereo not drawn) | inconclusive: 39.8 µM [inhibitor, single point] | – |
| CCN(CC)CCNC(=S)Nc1ccc2nc(N3CCCC3)cc(C)c2c1 | inconclusive: 28.2 µM [inhibitor, single point] | – |
| CCc1nc2c(OCCC3CCCCC3)cccn2c1N(C)C(=O)CC(C)C | inconclusive: 31.6 µM [inhibitor, single point] | – |
| O=C(NCCc1csc(-c2ccc(F)cc2)n1)c1cccs1 | inconclusive: 20 µM [inhibitor, single point] | – |
| O=S(=O)(CCSc1nc2ccccc2s1)c1nc2ccccc2s1 | inconclusive: 39.8 µM [inhibitor, single point] | – |
| O=C(c1ccc(-c2nnc(Nc3cccc(Cl)c3)c3ccccc23)cc1)N1C[C@H]2C[C@H](C1)c1cccc(=O)n1C2 | inconclusive: 39.8 µM [inhibitor, single point] | – |
| O=c1[nH]c(CN2CCN(c3ncccn3)CC2)nc2c(Br)cc(Br)cc12 | inconclusive: 22.4 µM [inhibitor, single point] | – |
| COc1ccc(-c2[nH]c(-c3ccccc3)nc2SCC(=O)Nc2ccc3c(c2)OCCO3)cc1 | inconclusive: 39.8 µM [inhibitor, partial curve, poor fit] | – |
| Oc1ccc(C[C@H]2CNC(=S)N2C[C@H]2CCCN2C[C@H](Cc2ccccc2)N2C[C@H](Cc3ccc(O)cc3)N(CCc3ccccc3)C2=S)cc1 | inconclusive: 28.2 µM [inhibitor, single point] | – |

| Compound | Potency | activity change, negative = inhibition |
| --- | --- | --- |
| O=C(N/N=C/c1ccc(O)cc1O)c1ccncc1 | active: 22.4 µM | – |
| CCOc1ccc(NC(=O)c2cnn(-c3ccc(C)c(Cl)c3)c2C2CCNCC2)cc1 | – | inactive: -13% |
| CCC1NC(=O)c2cc3ccccc3cc2-n2c1nc1ccc(F)cc1c2=O (stereo not drawn) | inconclusive: 39.8 µM [inhibitor, partial curve, poor fit] | – |
| O=C(COc1cccc(NC(=O)c2cccc([N+](=O)[O-])c2)c1)c1ccc(F)cc1 | inconclusive: 22.4 µM [inhibitor, partial curve, poor fit] | – |
| Cc1ccccc1Nc1cc2ccccc2c(=O)[nH]1 | – | inactive: -4.68% |
| CN1CCN(CCCNC(=O)Cn2c(-c3cccs3)cc3cc(Cl)ccc32)CC1 | inconclusive: 28.2 µM [inhibitor, partial curve, poor fit] | – |
| Cc1cc(Nc2cc(N3CCN(C)CC3)nc(Sc3ccc(NC(=O)C4CC4)cc3)n2)n[nH]1 | inconclusive: 10.9 µM [inhibitor, single point] | – |
| COc1cc(-c2nnc(SCC(=O)N(Cc3ccccc3)C(C)(C)C)o2)cc(OC)c1OC | inconclusive: 39.8 µM [inhibitor, single point] | – |
| CNCCOc1ccc(Cl)c(Cl)c1 | inconclusive: 39.8 µM [inhibitor, single point] | – |
| Cc1cc(C)c(NC(=O)CN2c3ccccc3S(=O)(=O)c3ccccc32)c(C)c1 | – | inactive: -11.2% |
| CCn1cc2nc(SCC(=O)Nc3ccccc3F)n(Cc3ccc(C)cc3)c(=O)c2n1 | – | inactive: -12.9% |
| COCc1nnc(NC(=O)c2ccc(S(=O)(=O)N(C)c3ccccc3)cc2)o1 | inconclusive: 31.6 µM [inhibitor, partial curve, poor fit] | – |
| Cc1c(-c2ccc(O)cc2)n(Cc2ccc(OCCN3CCCCCC3)cc2)c2ccc(O)cc12 | active: 17.8 µM | – |
| S=C(NCc1ccco1)N1CCN(C(c2ccccc2)c2ccccc2)CC1 | – | inactive: 4.96% |
| Cc1nn(CCC(=O)NCc2ccc(N(C)C)cc2)c(=O)c2nn(-c3ccccc3)c(C)c12 | inconclusive: 3.98 µM [inhibitor, partial curve, poor fit] | – |
| O=C(NC1=NCCS1)C1COc2ccccc2O1 (stereo not drawn) | active: 2.51 µM | – |
| O=C(Cn1ncc(Cl)c(Cl)c1=O)NCC1CCCCC1 | inconclusive: 35.5 µM [inhibitor, single point] | – |
| CCn1c2ccccc2c2nnc(SCC(N)=O)nc21 | – | inactive: 5.57% |
| O=C(COc1ccccc1)NNc1c2ccccc2nc2ccccc12 | inconclusive: 31.6 µM [inhibitor, single point] | – |
| N#Cc1c(C(F)(F)F)cc(-c2ccc(Cl)c(Cl)c2)nc1SCCN1CCOCC1 | inconclusive: 39.8 µM [inhibitor, partial curve, poor fit] | – |
| COCCn1c(SCC(=O)c2c(N)n(C)c(=O)n(C)c2=O)nc2ccccc21 | – | inactive: -25% |
| CC1=NN(c2ccccc2)C(=O)C1c1ccccc1 (stereo not drawn) | – | inactive: 1.09% |
| Cc1cc(C)c2[nH]c(=O)c(CN(Cc3nnnn3C3CCCC3)C3CCCCC3)cc2c1 | – | inactive: -8.7% |

| Compound | Potency | activity change, negative = inhibition |
| --- | --- | --- |
| O=C(CC[C@H]1O[C@@H](n2ccc(=O)[nH]c2=O)[C@H](O)[C@@H]1O)N[C@H](Cc1ccccc1)C(=O)NCC1CCCCC1 | – | inactive: 5.25% |
| Cc1cccc(C)c1OCc1cc(C(=O)N(Cc2c(C)nn(C)c2C)C2CC2)no1 | inconclusive: 14.1 µM [inhibitor, partial curve, poor fit] | – |
| COc1ccc(/C=N\Nc2ccccc2[N+](=O)[O-])c(C(=O)O)c1OC | – | inactive: 18.2% |
| Cc1cc(C(=O)COC(=O)c2cccc(O)c2)c(C)n1C1CC1 | inconclusive: 39.8 µM [inhibitor, single point] | – |
| CCOCCC(=O)Nc1ccc2c(c1)c(=O)n(C)n2CC=C(C)C | – | inactive: -3.67% |
| CCOc1ccc(/C=N/n2c(-c3ccccc3)n[nH]c2=S)cc1 | – | inactive: -3.07% |
| COc1cccc(CNC(=O)Cn2c(SCC(=O)Nc3ccc(F)cc3)nc3ccccc32)c1 | inconclusive: 31.6 µM [inhibitor, single point] | – |
| COC(=O)Cc1c(C)[nH]n(-c2cc(Cl)cc(Cl)c2)c1=O | – | inconclusive: -43.5% [inhibitor] |
| O=c1c2c([N+](=O)[O-])cc([N+](=O)[O-])cc2sn1Cc1ccccc1 | inconclusive: 39.8 µM [inhibitor, single point] | – |
| CN1CCc2nc3ccc(Cl)cc3c(-c3ccccc3Cl)c2C1 | – | inactive: -15.9% |
| O=C(Nc1ccc2nn(-c3ccccc3)nc2c1)c1ccc2c(c1)OCO2 | inconclusive: 28.2 µM [inhibitor, single point] | – |
| COc1ccc(OC)c(C(=O)/C=C/c2cccnc2)c1 | – | inconclusive: -97.6% [inhibitor] |
| COc1ccc(/C=C/C(=O)c2ccc([N+](=O)[O-])o2)cc1OC | active: 8.91 µM | – |
| c1cc(CN2CCCCC2)cc(OCCCNc2nc3ccccc3s2)c1 | inactive and inconclusive: 28.2 µM [inhibitor, partial curve] | – |
| COc1ccccc1CCNC(=O)c1nc(-c2cccs2)no1 | – | inactive: 15.3% |
| C#Cc1cccc(Nc2nc(NCc3ccccc3OC)nc3ccsc23)c1 | active: 20 µM | – |
| CCN(CC)c1ccc(/C=N/NC(=O)Cc2cccs2)c(O)c1 | inconclusive: 2.82 µM [inhibitor, full curve] | – |
| Cc1ccc(OCCN2CCNCC2)c([N+](=O)[O-])c1 | – | inactive: 7.59% |
| Cc1ccc(OCC(O)CN2CCN(CC(O)COc3ccc(C)cc3Cl)CC2)c(Cl)c1 (stereo not drawn) | inconclusive: 31.6 µM [inhibitor, partial curve, poor fit] | – |
| Oc1c(CN2CCN(c3ccccc3)CC2)cc(Br)c2cccnc12 | active: 4.47 µM | – |
| C=CCN(c1ccccc1)S(=O)(=O)c1cccc(C(=O)NC2CCN(Cc3ccccc3)CC2)c1 | inconclusive: 20 µM [inhibitor, partial curve, poor fit] | – |
| CC1=NN(c2ccc(C)cc2)C(=O)/C1=C\C=C\c1ccccc1 | inconclusive: 37.7 µM [inhibitor, single point] | – |
